Experimental data published in the supplement of paper PMC12217912.
Some of the results follow. Sequences were assembled here from the parent chain. Inactive controls read about 0.05.

B1: TEV protease; numbered along this chain (parent)
chain: MGESLFKGPRDYNPISSSICHLTNESDGHTTSLYGIGFGPFIITNKHLFRRNNGTLVVQSLHGVFKVKDTTTLQQHLVDGRDMIIIRMPKDFPPFPQKLKFREPQREERICLVTTNFQTKSMSSMVSDTSCTFPSGDGIFWKHWIQTKDGQCGSPLVSTRDGFIVGIHSASNFTNTNNYFTSVPKNFMELLTNQEAQQWVSGWRLNADSVLWGGHKVFMVKPEEPFQPVKEATQL

Variants of: B1
Assay: raw area under fraction-flipped curve 0-4 h after induction (AUC4h, not background-subtracted), DNA-recorder readout of cleavage of the substrate (dimensionless); higher = more cleavage of the substrate by the protease variant
Details: temperature: 34 °C; time window: 0-4 h after rhamnose induction
Procedure: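 In vivo DNA recorder in E. coli TOP10(DE3) ΔrhaA at 34 °C. Each TEVp single-site mutant (parent TEVp 0) is paired with a single-site variant of the 7-mer TEVs (canonical ENLYFQ|S). The substrate sits between flexible linkers in a Bxb1-sfGFP-TEVs-SsrA fusion, so cleavage stabilises Bxb1 and speeds flipping of a recombination array, read by NGS. The value is the raw area under the fraction-flipped curve over 0-4 h after rhamnose induction (AUC4h), with ≥20 reads per time point. It is not background-subtracted; inactive controls average about 0.047.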
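Note: Bxb1 expression induced with 0.2% (w/v) L-rhamnose at OD600 near 0.5, cultures sampled hourly, flipped fraction per protease–substrate barcode pair counted by paired-end Illumina sequencing.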

| Variant | area with substrate ENLYFQA | area with substrate ENLYFQC | area with substrate ENLYFQD | area with substrate ENLYFQG | area with substrate ENLYFQH | area with substrate ENLYFQI | area with substrate ENLYFQL | area with substrate ENLYFQN | area with substrate ENLYFQP | area with substrate ENLYFQQ | area with substrate ENLYFQR | area with substrate ENLYFQS | area with substrate ENLYFQT | area with substrate ENLYFQV | area with substrate ENLYFQW | area with substrate ENLYFQM | area with substrate ENLYFQY | area with substrate ENLYFQF | area with substrate ENLYFQE | area with substrate ENLYFQK |
| --- | --- | --- | --- | --- | --- | --- | --- | --- | --- | --- | --- | --- | --- | --- | --- | --- | --- | --- | --- | --- |
| E195A | 0.107 | 0.0787 | 0.0722 | 0.0826 | 0.0798 | 0.082 | 0.0695 | 0.0817 | 0.0595 | 0.0726 | 0.0438 | 0.112 | 0.0708 | 0.0601 | 0.0624 | – | – | – | – | – |
| I167V | 0.0965 | 0.0911 | – | 0.101 | – | 0.0592 | 0.057 | – | 0.0503 | – | 0.0643 | 0.0941 | 0.0561 | – | 0.0588 | 0.072 | 0.0739 | – | – | – |
| K185C | 0.0929 | – | 0.0709 | 0.101 | – | 0.0687 | 0.0633 | – | – | – | 0.0857 | 0.109 | 0.0748 | – | 0.0503 | – | – | 0.0817 | – | – |
| Y179A | 0.0668 | – | – | 0.0518 | – | – | – | – | – | – | – | 0.0581 | 0.0631 | – | – | 0.0628 | – | – | 0.0541 | – |
| Y179E | 0.0661 | 0.0495 | – | – | – | – | 0.0504 | – | – | – | 0.0426 | 0.0669 | 0.0349 | – | – | – | 0.0528 | – | – | 0.0669 |
| Y179S | 0.0693 | 0.0579 | 0.0583 | 0.0547 | – | 0.0478 | – | 0.0607 | 0.0677 | 0.0682 | 0.0545 | 0.0601 | 0.0642 | 0.0495 | 0.0645 | 0.0685 | 0.0803 | 0.0562 | – | 0.0673 |
| F163I | 0.058 | 0.054 | 0.0666 | 0.141 | – | 0.0374 | 0.0608 | – | – | – | 0.0644 | 0.0855 | 0.0567 | 0.059 | – | – | 0.0784 | 0.0513 | 0.0674 | 0.0797 |
| L191P | 0.0571 | – | 0.056 | – | – | 0.0417 | – | 0.0483 | 0.0606 | – | 0.0457 | 0.0562 | – | 0.0513 | 0.0505 | 0.053 | 0.0477 | – | – | – |
| N175G | 0.107 | – | – | 0.11 | 0.0792 | – | 0.0623 | 0.0642 | – | – | 0.0371 | 0.102 | – | 0.0566 | 0.0541 | – | 0.0683 | – | – | 0.0641 |
| N177P | 0.0555 | 0.0698 | – | 0.0536 | 0.0504 | 0.0516 | 0.0551 | 0.0579 | 0.0607 | – | 0.0547 | 0.0641 | 0.0674 | 0.0562 | 0.0566 | 0.0813 | 0.0591 | – | – | 0.0605 |
| N177I | 0.139 | – | 0.076 | – | 0.0783 | – | 0.0612 | – | – | – | – | 0.145 | – | – | 0.0774 | 0.0892 | 0.113 | – | – | – |
| N177C | 0.207 | 0.178 | 0.0857 | 0.15 | – | – | – | 0.107 | – | 0.086 | 0.067 | 0.151 | – | 0.0625 | 0.0835 | 0.11 | – | – | – | – |
| S171H | 0.0451 | 0.0695 | – | 0.0629 | 0.0567 | 0.0555 | 0.0583 | 0.0607 | – | – | 0.0611 | 0.0663 | 0.0538 | 0.0509 | 0.0686 | 0.0558 | – | 0.0481 | 0.0699 | 0.0604 |
| P184F | 0.0895 | – | 0.0846 | 0.0626 | – | 0.0636 | 0.069 | 0.0631 | 0.0492 | – | 0.0562 | 0.0689 | – | 0.0595 | 0.0521 | 0.0669 | 0.0251 | 0.0611 | – | 0.0587 |
| L156R | 0.0455 | 0.0588 | – | 0.0415 | – | 0.023 | 0.033 | 0.0514 | 0.0567 | – | – | 0.0491 | 0.0448 | – | – | – | 0.0451 | – | – | 0.0447 |
| K148C | 0.08 | 0.109 | – | 0.0957 | 0.0732 | – | 0.063 | 0.0601 | 0.0707 | – | 0.0541 | 0.0962 | 0.0383 | 0.0773 | 0.0468 | 0.104 | 0.141 | – | – | 0.0553 |
| Q194H | 0.101 | 0.116 | 0.0995 | 0.0842 | 0.086 | 0.0742 | 0.0605 | 0.0736 | – | – | 0.0619 | 0.107 | – | – | 0.0768 | 0.0944 | 0.0818 | 0.0785 | – | 0.0636 |
| Q194N | 0.138 | 0.156 | 0.0849 | – | 0.0717 | – | 0.0627 | 0.156 | – | – | 0.0639 | 0.114 | 0.0623 | 0.048 | 0.0751 | 0.113 | 0.0632 | – | 0.0642 | – |
| V183W | 0.0547 | 0.08 | 0.0515 | – | – | 0.0633 | 0.0589 | 0.0631 | 0.0647 | – | 0.058 | 0.078 | – | 0.0599 | 0.0603 | 0.0589 | 0.0565 | 0.0497 | – | – |
| F140V | 0.0634 | 0.0746 | 0.0664 | 0.0666 | – | 0.0608 | 0.0687 | 0.0611 | 0.0563 | 0.0566 | 0.0565 | 0.0685 | 0.0553 | 0.0456 | 0.0546 | 0.0585 | 0.0591 | 0.0444 | 0.0523 | 0.056 |
| G162D | 0.0908 | – | 0.0738 | – | 0.0768 | 0.0654 | 0.0516 | 0.0803 | – | 0.0864 | 0.0481 | 0.0967 | – | 0.0567 | 0.0723 | 0.0877 | – | – | – | 0.0947 |
| G162L | 0 | – | 0.0653 | 0.0653 | 0.0713 | – | 0.0567 | 0.0747 | – | 0.0642 | 0.0537 | 0.086 | 0.0566 | 0.0569 | – | 0.0952 | – | – | – | 0.0504 |
| G162R | 0.143 | 0.118 | – | – | – | 0.0546 | 0.0361 | 0.0422 | 0.0534 | 0.0863 | – | 0.094 | 0.0609 | – | 0.0503 | 0.0945 | 0.0645 | – | – | – |
| G162F | 0.0781 | 0.0982 | 0.0608 | 0.0915 | 0.0799 | 0.042 | 0.0585 | 0.0711 | 0.0472 | – | 0.0601 | 0.0842 | 0.0621 | 0.0658 | 0.0291 | 0.0746 | 0.093 | 0.0562 | – | 0.0602 |
| I164G | 0.0537 | – | – | – | 0.0493 | 0.0649 | 0.0521 | 0.0549 | 0.0466 | – | 0.045 | 0.0517 | – | – | 0.0648 | – | 0.054 | 0.0581 | – | 0.0508 |
| A170Y | 0.0565 | 0.0409 | – | 0.0739 | – | – | – | – | – | – | – | 0.0563 | – | – | – | 0.0515 | – | – | – | 0.0692 |
| P155I | 0.0768 | 0.0717 | 0.0591 | 0.076 | – | – | 0.0268 | – | 0.0707 | – | – | 0.0658 | 0.059 | 0.0303 | 0.068 | 0.0353 | – | 0.0464 | 0.0633 | – |
